Data reported in PubChem BioAssay AID1460 (National Center for Advancing Translational Sciences (NCATS), 2008).
Screen size: about 270,000 compounds; about 5,800 (2.1%) were called active. This list was built around the results that the source calls inconclusive (neither active nor inactive); the mix of calls is not that of the screen. The call rests on the fitted dose curve; in most records, active means well fitted inhibition curve with a large enough effect; inconclusive means small, poorly fitted or top-dose-only effect; inactive means flat fitted curve, though single readings scatter. Where the call is inconclusive, the potency comes from a doubtful curve fit.

molecular target: Microtubule-associated protein tau (Homo sapiens) (UniProt P10636); experiment: qHTS for Inhibitors of Tau Fibril Formation, Thioflavin T Binding; conditions: recombinant tau K18 P301L, heparin-induced fibrillization, ThT fluorescence; series mostly up to 57.4 µM; further: nearly all actives have a fitted effect of over 55% in size
Procedure, shortened: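 Using a mix of unlabeled (15 uM) and Alexa 594-labeled (0.24 uM) tau K18 P301L, heparin-triggered fibrillization over 6 hr at 37 C was scored by ThT fluorescence.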
Potency means the concentration at half of the fitted maximal effect; tags describe the fitted curve by direction and shape.

Chain of UniProt P10636 (P10636 whole entry, looked up): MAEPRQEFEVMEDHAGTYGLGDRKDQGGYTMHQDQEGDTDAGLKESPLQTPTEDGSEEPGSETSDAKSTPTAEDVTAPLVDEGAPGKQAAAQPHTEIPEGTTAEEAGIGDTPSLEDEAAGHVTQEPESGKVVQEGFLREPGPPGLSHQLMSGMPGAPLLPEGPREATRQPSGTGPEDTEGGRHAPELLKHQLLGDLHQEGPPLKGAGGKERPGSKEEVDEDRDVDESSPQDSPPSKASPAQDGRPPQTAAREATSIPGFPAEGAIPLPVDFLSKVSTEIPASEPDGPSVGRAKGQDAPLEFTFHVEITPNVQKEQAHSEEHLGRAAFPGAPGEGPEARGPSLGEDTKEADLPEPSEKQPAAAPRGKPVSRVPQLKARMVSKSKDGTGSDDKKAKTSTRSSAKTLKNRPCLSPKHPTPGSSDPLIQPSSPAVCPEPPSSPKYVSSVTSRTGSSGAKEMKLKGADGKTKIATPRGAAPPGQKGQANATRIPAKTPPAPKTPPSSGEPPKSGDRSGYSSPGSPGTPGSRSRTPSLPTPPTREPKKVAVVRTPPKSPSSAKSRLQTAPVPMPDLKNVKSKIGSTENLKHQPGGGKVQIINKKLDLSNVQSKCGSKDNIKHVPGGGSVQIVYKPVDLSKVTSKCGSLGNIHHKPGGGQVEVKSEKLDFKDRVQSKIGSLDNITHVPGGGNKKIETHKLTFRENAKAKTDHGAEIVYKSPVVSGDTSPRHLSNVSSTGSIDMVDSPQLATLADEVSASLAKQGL

Q: `CCOc1ccc(CSC2=NCCN2)cc1[N+](=O)[O-]` was tested. Which Potency did it give?
A: inconclusive: 28.2 µM [inhibitor, single point]

Q: For `COc1ccc(CCNC(=O)c2ccc3c(c2)N(Cc2ccccc2F)C(=O)c2ccccc2S3(=O)=O)cc1OC`, which Potency is on record?
A: inactive

Q: With `COc1cccc(C2C3=C(CC(C)(C)CC3=O)Nc3cc4c(cc32)OCO4)c1` (configuration not stated) as the molecule, how does the Potency read?
A: inconclusive: 31.6 µM [inhibitor, partial curve]

Q: Which Potency does the source give for `Cc1nn(-c2ccccc2)c(C)c1/C=N/NC(=O)c1cc(C23CC4CC(CC(C4)C2)C3)[nH]n1` here?
A: inconclusive: 14.1 µM [inhibitor, partial curve]

Q: Which Potency does the source give for `CCOC(=O)/C=C/C(=O)Nc1ccc(Oc2ccccc2)cc1` here?
A: inconclusive: 17.8 µM [inhibitor, partial curve]

Q: With `O=C(Nc1cccc(Oc2ccc3c(c2)C(=O)NC3=O)c1)c1ccco1` as the molecule, how does the Potency read?
A: inconclusive: 20 µM [inhibitor, partial curve]

Q: For `COc1ccc(OC)c2c(C)cc(NCCN3CCOCC3)nc12`, which Potency is on record?
A: inconclusive: 28.2 µM [inhibitor, partial curve]

Q: How did the Potency turn out when `CC(C)C[C@H](NC(=O)c1[nH]cnc1C(=O)N[C@@H](C)C(=O)OC(C)(C)C)C(=O)OCc1ccccc1` was run?
A: inactive

Q: Which Potency does the source give for `CC(/C=C/c1ccccc1F)=N\NC(=O)c1cccc(F)c1` here?
A: inconclusive: 10 µM [inhibitor, partial curve]

Q: How did the Potency turn out when `O=c1c2c(-c3ccccc3)ccnc2[nH]n1-c1ccccc1` was run?
A: inconclusive: 7.94 µM [inhibitor, partial curve]

Q: Which Potency does the source give for `Cc1cccc2cc(/C=N/NC(=O)c3ccccc3O)c(Cl)nc12` here?
A: inconclusive: 3.55 µM [inhibitor, full curve]

Q: Which Potency does the source give for `CCCCCCC#CC1C=CC(OC(=O)OCC)C(COC(=O)OCC)O1` (configuration not stated) here?
A: inconclusive: 3.98 µM [inhibitor, partial curve, poor fit]

Q: For `Cc1ccccc1C(=O)Nc1nnc(S(=O)(=O)N2c3ccccc3CC2C)s1` (configuration not stated), which Potency is on record?
A: inconclusive: 0.447 µM [inhibitor, full curve, poor fit]

Q: How did the Potency turn out when `COc1ccc(C2C(=O)N(C3CCCCCC3)CC(=O)N2Cc2ccc(C)cc2)cc1OC` (configuration not stated) was run?
A: inactive

Q: `CC(C)Cn1c(N)c(C(=O)COC(=O)c2cc(-c3ccco3)nc3ccccc23)c(=O)n(C)c1=O` was tested. Which Potency did it give?
A: inconclusive: 14.1 µM [inhibitor, partial curve]

Q: Which Potency does the source give for `OC(COc1ccc(Cl)c2ccccc12)CN1CCN(c2ccccn2)CC1` (configuration not stated) here?
A: inconclusive: 3.16 µM [inhibitor, full curve]

Q: `CN(C)c1ccc(N=Nc2ccccc2C(=O)OCC(=O)N2CCCCCC2)cc1` was tested. Which Potency did it give?
A: active: 8.91 µM

Q: `Cc1cc(=O)oc2ccc(OC(=O)CN3C(=O)c4cccc([N+](=O)[O-])c4C3=O)cc12` was tested. Which Potency did it give?
A: inconclusive: 39.8 µM [inhibitor, single point]

Q: How did the Potency turn out when `COCCn1c(SCc2csc(-c3ccccc3)n2)nc2ccccc21` was run?
A: inconclusive: 12.6 µM [inhibitor, partial curve]

Q: For `Cc1cc(C)n(-c2cc(N3CCN(S(=O)(=O)c4ccc(Cl)cc4)CC3)ccc2[N+](=O)[O-])n1`, which Potency is on record?
A: inconclusive: 8.91 µM [inhibitor, partial curve]

Q: For `NC(=S)Cc1nc2n(n1)Cc1ccccc1-2`, which Potency is on record?
A: inconclusive: 31.6 µM [inhibitor, single point]

Q: How did the Potency turn out when `Cc1ccccc1C(=O)NC1CCN(Cc2nnnn2Cc2ccc(F)cc2)CC1` was run?
A: inactive

Q: With `Oc1c(-c2cc(-c3ccco3)[nH]n2)ccc2ccccc12` as the molecule, how does the Potency read?
A: inconclusive: 10 µM [inhibitor, partial curve]

Q: For `CN(C)/C=C/C(=O)c1cnc2sccn2c1=O`, which Potency is on record?
A: inconclusive: 14.1 µM [inhibitor, partial curve]

Q: Which Potency does the source give for `CC(=O)Nc1ccc(NC(=O)CSc2nc3ccccc3nc2N2CCOCC2)cc1` here?
A: inconclusive: 39.8 µM [inhibitor, single point]

Q: `Oc1c(C(c2ccccc2Cl)N2CCCC2)sc2nc(-c3ccco3)nn12` (configuration not stated) was tested. Which Potency did it give?
A: inactive

Q: For `C/C(=N\NC(=O)COc1cccc(Cl)c1)c1ccc2c(c1)OCCO2`, which Potency is on record?
A: inconclusive: 7.94 µM [inhibitor, full curve]

Q: How did the Potency turn out when `CCC(C)NC(=S)Nc1ccc2nc(N3CCN(CC)CC3)cc(C)c2c1` (configuration not stated) was run?
A: inconclusive: 25.1 µM [inhibitor, partial curve]

Q: How did the Potency turn out when `CC(=O)N1CCN(c2ccc(NC(=O)COc3ccc(Cl)cc3Cl)cc2)CC1` was run?
A: inconclusive: 1.58 µM [inhibitor, full curve]

Q: How did the Potency turn out when `Cc1ccc2c(c1)c(N=NC(N)=S)c(O)n2Cc1ccccc1` was run?
A: inactive

Q: Which Potency does the source give for `N#Cc1c[nH]n2c(=O)c3c(nc12)CCCC3` here?
A: inactive

Q: With `NNc1nc2cccnc2n(CCNc2ncc(C(F)(F)F)cc2Cl)c1=O` as the molecule, how does the Potency read?
A: inconclusive: 15.8 µM [inhibitor, partial curve]

Q: With `O=C(c1ccc(COc2c(F)c(F)cc(F)c2F)o1)N1CCN(c2ccc(Cl)cc2)CC1` as the molecule, how does the Potency read?
A: inconclusive: 25.1 µM [inhibitor, partial curve, poor fit]

Q: `COc1cc2c(cc1OC)/C(=C/c1ccc(Br)cc1)C(=O)OC2` was tested. Which Potency did it give?
A: inconclusive: 17.8 µM [inhibitor, partial curve, poor fit]

Q: How did the Potency turn out when `COc1cccc(NC(=O)CSc2ncnc3c2oc2ccccc23)c1` was run?
A: inactive

Q: With `CC1CCc2nc(/C(C#N)=C/c3ccncc3)sc2C1` (configuration not stated) as the molecule, how does the Potency read?
A: inconclusive: 5.01 µM [inhibitor, partial curve]

Q: Which Potency does the source give for `O=C(NCc1ccccn1)C1CCN(S(=O)(=O)c2cccs2)CC1` here?
A: inconclusive: 6.31 µM [inhibitor, partial curve]

Q: Which Potency does the source give for `COc1ccc(C(c2c(O)cc(C)n(Cc3ccco3)c2=O)N2CCCCC2)cc1OC` (configuration not stated) here?
A: inconclusive: 25.1 µM [inhibitor, single point]

Q: Which Potency does the source give for `COc1cccc(OCCNc2cc(N3CCCCC3)ccc2[N+](=O)[O-])c1` here?
A: inconclusive: 5.62 µM [inhibitor, partial curve]

Q: For `COc1cc(C(=O)N2CCC(c3nc4ccccc4o3)CC2)cc(OC)c1OC`, which Potency is on record?
A: inactive

Q: How did the Potency turn out when `CCOc1cc(N2CCOCC2)c(OCC)cc1NC(=O)CSc1cccc[n+]1[O-]` was run?
A: inconclusive: 17.8 µM [inhibitor, partial curve]

Q: With `CC1CCN(C(=O)CSc2nc(-c3ccccc3)no2)CC1` as the molecule, how does the Potency read?
A: inconclusive: 31.6 µM [inhibitor, single point]

Q: How did the Potency turn out when `O=C(CCCOc1ccc(Cl)cc1Cl)Nc1ccc(O)cc1C(=O)O` was run?
A: inconclusive: 22.4 µM [inhibitor, single point]

Q: Which Potency does the source give for `O=C(O)c1cnn2c(-c3ccc(F)cc3)ccnc12` here?
A: inactive

Q: `COc1ccc(CN(C(=O)c2snc(C(N)=O)c2N)C(C(=O)NC(C)(C)C)c2ccco2)cc1` (configuration not stated) was tested. Which Potency did it give?
A: inactive

Q: For `CSc1nnc2n(C3CCCCC3)c(=O)c3c4c(sc3n12)CCCC4`, which Potency is on record?
A: inactive

Q: With `CCCCC1=CC2=C(OC(C)=O)C(=O)C(C)(OC(=O)c3ccco3)C(=O)C2=CO1` (configuration not stated) as the molecule, how does the Potency read?
A: inconclusive: 8.91 µM [inhibitor, partial curve]

Q: `CCOc1ccc(Nc2nc3cc(S(=O)(=O)CC)ccc3o2)cc1` was tested. Which Potency did it give?
A: inconclusive: 14.1 µM [inhibitor, partial curve]

Q: How did the Potency turn out when `COc1ccc(-n2ccn(CC(=O)NCCc3ccccc3)c(=O)c2=O)cc1OC` was run?
A: inconclusive: 5.01 µM [inhibitor, partial curve]

Q: How did the Potency turn out when `COC(=O)COc1ccc(-c2ccccc2)cc1C=O` was run?
A: inconclusive: 14.1 µM [inhibitor, partial curve, poor fit]

Q: For `CC(C)(C)c1ccc(-c2nc3cc(NC(=O)c4cccc(Br)c4)ccc3o2)cc1`, which Potency is on record?
A: inactive

Q: Which Potency does the source give for `CCc1ccc(Oc2c(C(F)(F)F)oc3c(CN4CCN(C)CC4)c(O)ccc3c2=O)cc1` here?
A: inactive

Q: `Cn1c(=O)c2c(ncn2Cc2ccccc2)n(C)c1=O` was tested. Which Potency did it give?
A: inactive

Q: How did the Potency turn out when `CCOc1ccccc1CNC(=O)c1cnc2sc(N3CCCCCC3)nn2c1=O` was run?
A: inactive

Q: How did the Potency turn out when `NC(=O)c1cc2ccc(O)cc2oc1=NCc1ccccc1` was run?
A: inconclusive: 3.16 µM [activator, full curve]

Q: For `O=C(N/N=C/c1ccc(-c2cccc([N+](=O)[O-])c2)o1)c1ccccc1O`, which Potency is on record?
A: active: 8.91 µM

Q: How did the Potency turn out when `COC(=O)c1ccc(NC(=S)Nc2ccc(O)cc2)cc1` was run?
A: inactive

Q: Which Potency does the source give for `NNC(=O)c1ccc(-c2cccc([N+](=O)[O-])c2)o1` here?
A: inconclusive: 12.6 µM [inhibitor, partial curve]

Q: Which Potency does the source give for `O=C(Cn1c(=O)n(Cc2ccc3c(c2)OCO3)c(=O)c2oc3ccccc3c21)Nc1ccc(F)cc1` here?
A: inconclusive: 14.1 µM [activator, partial curve]

Q: For `Cc1ccc(-n2c(=O)[nH]c3c(C(N)=O)nc(-c4ccc(C)o4)nc32)cc1`, which Potency is on record?
A: inconclusive: 20 µM [inhibitor, single point]

Q: How did the Potency turn out when `COc1ccc(-c2noc(CSc3nnc(-c4ccncc4)n3-c3ccc(C)cc3)n2)cc1OC` was run?
A: inactive

Q: How did the Potency turn out when `CC(C)(C)C(=O)c1sc(Nc2ccccc2)nc1N` was run?
A: inconclusive: 20 µM [inhibitor, partial curve, poor fit]

Q: For `CCOc1ccc(-n2c(=S)sc3c(=O)[nH]c(SCC(=O)N4CCC(C)CC4)nc32)cc1`, which Potency is on record?
A: inconclusive: 28.2 µM [inhibitor, partial curve, poor fit]

Q: How did the Potency turn out when `C=CCOC(=O)C(C#N)c1nc2ccccc2nc1N1CCN(Cc2ccccc2)CC1` (configuration not stated) was run?
A: inconclusive: 17.8 µM [inhibitor, partial curve]

Q: With `O=C(NCc1nc2ccccc2[nH]1)C1=C[C@@H](c2ccccc2)C[C@@H](OCc2ccc(CO)cc2)O1` as the molecule, how does the Potency read?
A: inconclusive: 0.355 µM [activator, single point]

Q: Which Potency does the source give for `Cc1ccc(/C=N/N2CCN(Cc3cccc4ccccc34)CC2)o1` here?
A: inconclusive: 15.8 µM [inhibitor, partial curve]

Q: For `O=C(C1=C[C@H](c2ccc(Br)cc2)C[C@H](OCCCCO)O1)N1CCN(Cc2ccccc2)CC1`, which Potency is on record?
A: inconclusive: 28.2 µM [inhibitor, single point]
